This is one part of the list.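 The calls were made as follows: active = permutation test q below 0.05 after Benjamini-Hochberg correction; inactive = q of 0.05 or more.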
tested on: A549; experiment: mean average precision of replicate retrieval against DMSO controls (Cell Painting phenotypic activity) (fraction (0-1)); higher = stronger, more reproducible morphological phenotype distinct from DMSO; extreme values may be limits of the assay; details: 24 h; 5 µM
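Also: cosine similarity of well-level aggregated Cell Painting profiles ranks each compound's replicate wells against DMSO wells, four replicate plates, significance from 100,000 rank shuffles.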

SMILES	mean average precision
O=C1C(SCCO)=C(SCCO)C(=O)c2ccccc21	active: 0.897
Nc1ccn([C@H]2C[C@H](O)[C@@H](CO)O2)c(=O)n1	inactive: 0.246
CCC(c1ccc(O)cc1)C(CC)c1ccc(O)cc1 (stereo not drawn)	active: 0.46
CC(C)(N)C(=O)N[C@H](COCc1ccccc1)C(=O)N1CCC2(CC1)CN(S(C)(=O)=O)c1ccccc12	active: 0.704
CN1CCc2nc(C(=O)N[C@H]3C[C@H](C(=O)N(C)C)CC[C@@H]3NC(=O)C(=O)Nc3ccc(Cl)cn3)sc2C1	inactive: 0.12
CCOC(=O)[C@H](C)C[C@@H](Cc1ccc(-c2ccccc2)cc1)NC(=O)CCC(=O)O	inactive: 0.126
CCOc1ccccc1N=Nc1c(C)[nH]n(-c2nc(-c3ccccc3)cs2)c1=O	active: 0.815
COC(=O)C[C@](O)(CCCC(C)(C)O)C(=O)O[C@@H]1C(OC)=C[C@]23CCCN2CCc2cc4c(cc2[C@H]13)OCO4	active: 1
N#CC1(c2ccc(NC(=O)c3cccnc3NCc3ccncc3)cc2)CCCC1	active: 0.925
OCc1ccc(-c2nn(Cc3ccccc3)c3ccccc23)o1	active: 0.307
CO[C@@H](C(=O)N1Cc2[nH]nc(NC(=O)c3ccc(N4CCN(C)CC4)cc3)c2C1)c1ccccc1	active: 1
Cc1nc(Nc2n[nH]c3c2CN(C(=O)N[C@H](CN(C)C)c2ccccc2)C3(C)C)c2sccc2n1	active: 0.35
Cc1nc2n(c(=O)c1CCN1CCC(c3noc4cc(F)ccc34)CC1)CCCC2O (stereo not drawn)	inactive: 0.302
Nc1ncnc2c1c(-c1cnc3[nH]ccc3c1)nn2C1CCCC1	active: 1
Cc1cnc(Nc2ccc(OCCN3CCCC3)cc2)nc1Nc1cccc(S(=O)(=O)NC(C)(C)C)c1	active: 1
O=c1cc(-c2cccc3c2Sc2ccccc2S3)oc(N2CCOCC2)c1	active: 1
Cc1ccc(NC2=CC(=O)c3sc(C)nc3C2=O)cc1	active: 1

SMILES	mean average precision
CC(C)c1cc(-c2n[nH]c(=O)n2-c2ccc3c(ccn3C)c2)c(O)cc1O	active: 1
O=C(NNC(=O)c1ccc(CNS(=O)(=O)c2ccc(F)c(Cl)c2)cc1)c1ccccc1	inactive: 0.265
S=C(S)N1CCCC1	active: 0.979
CC(NC(=O)CCc1nc2ccccc2c(=O)[nH]1)c1ccccc1 (stereo not drawn)	active: 0.623
Cc1ccc(Sc2cncc3sc(C(N)=O)cc23)cc1	active: 0.572
CC(C)C[C@H](NC(=O)[C@@H](NC(=O)c1cccc(-c2ccccc2)n1)[C@@H](C)O)B(O)O	active: 1
NC(CSSCC(N)C(=O)O)C(=O)O (stereo not drawn)	inactive: 0.13
CCCCc1nc(-c2ccc(OCCCN(CC)CC)cc2)cn1-c1ccc(Oc2ccc(Cl)cc2)cc1	active: 1
Cn1ncc(Cl)c1-c1cc(C(=O)N[C@H](CN)Cc2cccc(F)c2)sc1Cl	active: 1
C[C@@H]1C[C@H]2[C@@H]3CCC4=CC(=O)C=C[C@]4(C)[C@@]3(F)[C@@H](O)C[C@]2(C)[C@@]1(O)C(=O)CO	active: 0.904
CN[C@H]1C(=O)N[C@@H]2Cc3ccc(cc3)Oc3cc4cc(c3O[C@@H]3O[C@H](C(=O)O)[C@@H](O)[C@H](O)[C@H]3NC(=O)CCCCCCCCC(C)C)Oc3ccc(cc3Cl)[C@@H](O)[C@@H]3NC(=O)[C@H](NC(=O)[C@@H]4NC(=O)[C@@H](NC2=O)c2cc(cc(O)c2Cl)Oc2cc1ccc2O)c1ccc(O)c(c1)-c1c(O[C@H]2O[C@H](CO)[C@@H](O)[C@H](O)[C@@H]2O)cc(O)cc1[C@@H](C(=O)NCCCN(C)C)NC3=O	inactive: 0.153
FC(F)OC(Cl)C(F)(F)F (stereo not drawn)	inactive: 0.138
Cc1ccnc2c1NC(=O)c1cccnc1N2C1CC1	active: 0.572
Cc1cc(Nc2ncc(Cl)c(Nc3ccccc3S(=O)(=O)C(C)C)n2)c(OC(C)C)cc1C1CCNCC1	active: 1
CCn1c(=O)[nH]c2ccccc21	active: 0.465
NC(=O)Nc1cc(-c2cccc(F)c2)sc1C(=O)N[C@H]1CCCNC1	active: 1
CCCC(=O)O	active: 0.599

same assay, conditions: 48 h; 5 µM

SMILES	mean average precision
O=C1C(SCCO)=C(SCCO)C(=O)c2ccccc21	active: 1
Nc1ccn([C@H]2C[C@H](O)[C@@H](CO)O2)c(=O)n1	active: 0.592
CCC(c1ccc(O)cc1)C(CC)c1ccc(O)cc1 (stereo not drawn)	active: 0.724
CC(C)(N)C(=O)N[C@H](COCc1ccccc1)C(=O)N1CCC2(CC1)CN(S(C)(=O)=O)c1ccccc12	active: 1
CN1CCc2nc(C(=O)N[C@H]3C[C@H](C(=O)N(C)C)CC[C@@H]3NC(=O)C(=O)Nc3ccc(Cl)cn3)sc2C1	active: 0.582
CCOC(=O)[C@H](C)C[C@@H](Cc1ccc(-c2ccccc2)cc1)NC(=O)CCC(=O)O	active: 0.451
CCOc1ccccc1N=Nc1c(C)[nH]n(-c2nc(-c3ccccc3)cs2)c1=O	active: 0.75
COC(=O)C[C@](O)(CCCC(C)(C)O)C(=O)O[C@@H]1C(OC)=C[C@]23CCCN2CCc2cc4c(cc2[C@H]13)OCO4	active: 1
N#CC1(c2ccc(NC(=O)c3cccnc3NCc3ccncc3)cc2)CCCC1	active: 1
OCc1ccc(-c2nn(Cc3ccccc3)c3ccccc23)o1	active: 0.7
CO[C@@H](C(=O)N1Cc2[nH]nc(NC(=O)c3ccc(N4CCN(C)CC4)cc3)c2C1)c1ccccc1	active: 1
Cc1nc(Nc2n[nH]c3c2CN(C(=O)N[C@H](CN(C)C)c2ccccc2)C3(C)C)c2sccc2n1	active: 0.436
Cc1nc2n(c(=O)c1CCN1CCC(c3noc4cc(F)ccc34)CC1)CCCC2O (stereo not drawn)	active: 0.51
Nc1ncnc2c1c(-c1cnc3[nH]ccc3c1)nn2C1CCCC1	active: 1
Cc1cnc(Nc2ccc(OCCN3CCCC3)cc2)nc1Nc1cccc(S(=O)(=O)NC(C)(C)C)c1	active: 1
O=c1cc(-c2cccc3c2Sc2ccccc2S3)oc(N2CCOCC2)c1	active: 1
Cc1ccc(NC2=CC(=O)c3sc(C)nc3C2=O)cc1	active: 1

SMILES	mean average precision
CC(C)c1cc(-c2n[nH]c(=O)n2-c2ccc3c(ccn3C)c2)c(O)cc1O	active: 1
O=C(NNC(=O)c1ccc(CNS(=O)(=O)c2ccc(F)c(Cl)c2)cc1)c1ccccc1	active: 0.575
S=C(S)N1CCCC1	active: 1
CC(NC(=O)CCc1nc2ccccc2c(=O)[nH]1)c1ccccc1 (stereo not drawn)	active: 0.446
Cc1ccc(Sc2cncc3sc(C(N)=O)cc23)cc1	active: 1
CC(C)C[C@H](NC(=O)[C@@H](NC(=O)c1cccc(-c2ccccc2)n1)[C@@H](C)O)B(O)O	active: 1
NC(CSSCC(N)C(=O)O)C(=O)O (stereo not drawn)	inactive: 0.259
CCCCc1nc(-c2ccc(OCCCN(CC)CC)cc2)cn1-c1ccc(Oc2ccc(Cl)cc2)cc1	active: 1
Cn1ncc(Cl)c1-c1cc(C(=O)N[C@H](CN)Cc2cccc(F)c2)sc1Cl	active: 1
C[C@@H]1C[C@H]2[C@@H]3CCC4=CC(=O)C=C[C@]4(C)[C@@]3(F)[C@@H](O)C[C@]2(C)[C@@]1(O)C(=O)CO	active: 1
CN[C@H]1C(=O)N[C@@H]2Cc3ccc(cc3)Oc3cc4cc(c3O[C@@H]3O[C@H](C(=O)O)[C@@H](O)[C@H](O)[C@H]3NC(=O)CCCCCCCCC(C)C)Oc3ccc(cc3Cl)[C@@H](O)[C@@H]3NC(=O)[C@H](NC(=O)[C@@H]4NC(=O)[C@@H](NC2=O)c2cc(cc(O)c2Cl)Oc2cc1ccc2O)c1ccc(O)c(c1)-c1c(O[C@H]2O[C@H](CO)[C@@H](O)[C@H](O)[C@@H]2O)cc(O)cc1[C@@H](C(=O)NCCCN(C)C)NC3=O	inactive: 0.25
FC(F)OC(Cl)C(F)(F)F (stereo not drawn)	active: 0.483
Cc1ccnc2c1NC(=O)c1cccnc1N2C1CC1	active: 0.497
Cc1cc(Nc2ncc(Cl)c(Nc3ccccc3S(=O)(=O)C(C)C)n2)c(OC(C)C)cc1C1CCNCC1	active: 1
CCn1c(=O)[nH]c2ccccc21	active: 0.478
NC(=O)Nc1cc(-c2cccc(F)c2)sc1C(=O)N[C@H]1CCCNC1	active: 1
CCCC(=O)O	active: 0.925

From the supplement of paper PMC11166567
